From paper PMC5895051 come the findings set out here.

The target in test [1] is GST-ZMYND10, full-length protein (UniProt O75800). The test is described as follows: pull-down; purified GST-ZMYND10 (full length) or GST-MYND as bait; lysates from mTECs; immunoblot; only the target purified. For orientation: In western blotting, separated proteins are transferred to a membrane and probed.
Test [2] deals with FLAG-tagged ZMYND10 (zinc finger MYND-type-containing 10) (UniProt O75800). Put plainly: co-IP; constructs cotransfected into HEK 293T cells; immunoprecipitated with anti-FLAG M2 or anti-c-Myc affinity gels, immunoblot.
For test [3], the target named is FLAG-tagged ZMYND10 (zinc finger MYND-type-containing 10), O75800. The test is described as above. The settings on record: remark: other sources report otherwise.
Test [4] concerns the target T1, ZMYND10-p.Gln366* mutant protein (human) (UniProt O75800).
T1 sequence: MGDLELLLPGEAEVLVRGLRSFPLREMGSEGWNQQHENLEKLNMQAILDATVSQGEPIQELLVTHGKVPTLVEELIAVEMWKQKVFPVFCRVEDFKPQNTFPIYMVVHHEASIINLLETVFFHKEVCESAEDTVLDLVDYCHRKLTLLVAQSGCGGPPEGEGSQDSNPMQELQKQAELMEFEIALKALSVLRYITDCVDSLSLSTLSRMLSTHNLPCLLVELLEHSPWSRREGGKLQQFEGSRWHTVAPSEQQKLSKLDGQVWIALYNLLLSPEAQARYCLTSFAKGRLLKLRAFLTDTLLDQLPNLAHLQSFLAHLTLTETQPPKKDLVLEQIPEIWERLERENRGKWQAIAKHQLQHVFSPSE
Described as above.

No constants are given. Whether binding was seen depends on the method and setting. Binding seen in cells or lysates may run through a third protein. Some entries that bind do so weakly or less than the wild type. For some of these results: Tags and fused reporters may be left off the sequences shown.

B1: LRRC6, endogenous in mouse tracheal epithelial cells (protein, UniProt O88978 1-473)
chain: MGRITEDLIRRNAEHNDCVIFSLEELSLHQQEIERLEHIDKWCRDLKILYLQNNLIGKIENVSKLKKLEYLNLALNNIERIENLEGCEWLTKLDLTVNFIGELSSVKTLTHNIHLKELFLMGNPCADFDGYRQFVVVTLQQLKWLDGKEIERSERIQALQNYTSVEQQIREQEKAYCLRRAKEKEEAQRKLEEENESEDKKKSSTGFDGHWYTDIHTACPSATENQDYPQVPETQEEQHNTKESDDIEDDLAFWNKPSLFTPESRLETLRHMEKQRKAQDKLSEKKKKAKPPRTLITEDGKVLNVNEAKLDFSLKDDEKHNQIILDLAVYRYMDTSLIEVDVQPTYVRVMVKGKPFQLALSTEVQPDRSSAKRSQTTGHLLICMPKVGEMITGGQRTPTSVKTTSTSSREQTNPRKKQIERLEVDPSKHSCPDVSTIVQEKRHRPKRMESQPRDEPSEEDPDFEDNPEVPPLI
In the case of B1, in test [1], the binding result was “binds”.

B2: Myc-DNAI2 (dynein axonemal intermediate chain 2) (protein, UniProt Q9GZS0 1-605)
chain: MEIVYVYVKKRSEFGKQCNFSDRQAELNIDIMPNPELAEQFVERNPVDTGIQCSISMSEHEANSERFEMETRGVNHVEGGWPKDVNPLELEQTIRFRKKVEKDENYVNAIMQLGSIMEHCIKQNNAIDIYEEYFNDEEAMEVMEEDPSAKTINVFRDPQEIKRAATHLSWHPDGNRKLAVAYSCLDFQRAPVGMSSDSYIWDLENPNKPELALKPSSPLVTLEFNPKDSHVLLGGCYNGQIACWDTRKGSLVAELSTIESSHRDPVYGTIWLQSKTGTECFSASTDGQVMWWDIRKMSEPTEVVILDITKKEQLENALGAISLEFESTLPTKFMVGTEQGIVISCNRKAKTSAEKIVCTFPGHHGPIYALQRNPFYPKNFLTVGDWTARIWSEDSRESSIMWTKYHMAYLTDAAWSPVRPTVFFTTRMDGTLDIWDFMFEQCDPTLSLKVCDEALFCLRVQDNGCLIACGSQLGTTTLLEVSPGLSTLQRNEKNVASSMFERETRREKILEARHREMRLKEKGKAEGRDEEQTDEELAVDLEALVSKAEEEFFDIIFAELKKKEADAIKLTPVPQQPSPEEDQVVEEGEEAAGEEGDEEVEEDLA
For B2, the binding entry in test [2] is “no binding”.

B3: DNAI1, endogenous in mouse tracheal epithelial cells (protein, UniProt Q8C0M8 1-701)
chain: MPSKQIRKQSISVTRGARRRDEDSGTDVGEGTDEWSQSKATVRPPDQLELTDAELKEEFTRILTANNPHAPQNIVRYSFKEGTYKLIGFVNQMAVHFSQVGNLIPKDSDEGRRQHYRDEMVAGSQESIKVVTSEAENLEEEEEPKEGEGEAEAEAEAGSQTDIPAAAETTEKVIEEELMAPVQPKERKLTNQFNFSERASQTFNNPLRDRECQMEPPPRTNFSATANQWEIYDAYVDELEKQEKTKEKEKAKTPVAKKTEKMAMRKLTSMESQSDDITKVTQAAKIVERMVNQNTYDDVAQDFKYYEDTADEYRDQEGTLLPLWKFQNDKAKRLAVTALCWNPKYKDLFAVGHGSYDFMKQSRGMLLLYSMKNPSFPEYMFSSESGIMCLDVHVDHPYLVVVGYYDGNVAIYNLKKPHSQPCFRSTSKSGKHTDPVWQVKWQKDDMDHNLNFFSVSSDGRIVSWTLVKSELVHIDIIKLKTEGSTTEIPEGLQLHTVGCGTAFDFHKEIDYMFLVGTEEGKIYKCSKSYSSQFLDTYDAHNMAVDAVLWNPYHTKVFMSCSSDWTVKIWDHTIKTPMFIYDLNSAVGDVAWAPYSSTVFAAVTTDGKAHVFDLAVNKYEAICNQPVVAKKKNKITHVQFNPIHPIIIVGDDRGHIICLKLSPNLRKMPKEKKGQEVQKGPAVEIAKLDKLLNLVREVKTKT
Regarding B3, the binding entry in test [1] is listed as “binds”.

B4: IQUB, endogenous in mouse tracheal epithelial cells (protein, UniProt Q8CDK3 1-788)
chain: MSDPEEERVADSTAHYEEAGKVISIPRPSDEAEGSDVMPEQDDEVQELTTESEENVERHSEFSLSTPKSDDSKPREEVTSLGSASGSQDQDYRLLDYQKGEDDELLFLHKIKAIKETLQTSVRESIATVKIVLIPAGQEIIMPFRVDAPFRFLKEHFAHLLHIPHYVLQITHEGIIVGNNESLIQYGIKPQEIVQVEVFSTLPDQYPVRRIEGLSEGSQIITVTIQTSIDRYEEVAVEIIKSDFHKPFLGGFRHKITGLEYHNAGTQTVPRKIPEKDNLFCRDTQTVFQKKKLQQTTNTTSTQMTKIGVYVSNMTDKLLKPGNYFSAAEYHARRLHAVIVIQTSYRRWHAKRYVESLRKQKKLRLEWEEEQELLKIQEKEEWIRMDYYRRHNPKTTEDFELLYNALELWRQEEVEQICHYSSEAERKAALCELLEKETQMIASIGRHRSAARMERQDAAIQAFLDKCSAPNVWRRGDGKTIEMDTQFTIRARELQSIYKCILLKDLSQDERLDILLTLKHTVKEHECKLTQEILELIDREVDLMMRGVKPHNLEGLRKRITTLFIHYIKTPLFNPEVAKYLKVPQDPLKFYDTIYFCHSCQNYLPSVEFSVSPTSHRVYRCRHCINLENETQRRESFLKYKCLLQRLYYSEADYGDNSQIAFLMQLQDIKYLTENIWASQSALSAWDDLNDLVMVRWDKHVEWSPWNCILLTKDESTAHLRLPSIEKGYGHHFVHKIKHKHILAKNYFSQIPTLASLILNDDEVEDIRSKHSTKSPPKIIITRRIQPH
As for B4, in test [1], the binding entry is recorded as “binds”.

B5: Myc-TCTEX1D1 (Tctex1 domain-containing D1) (protein, UniProt Q8N7M0 1-179)
chain: MMMSDNAKGRAAHSWKKRGSISSLSNHEFWRKEIHGRIKDSMSTVSYMEEPSQRDDISRLTVQMENTYQLGPPKHFPVVTVNHILKDVVTSYLQVEEYEPELCRQMTKTISEVIKAQVKDLMIPRYKLIVIVHIGQLNRQSILIGSRCLWDPKSDTFSSYVFRNSSLFALANVYAVYLE
Take B5: in test [2], the binding entry is reported as “binds”.

B6: DYX1C1-V5 (dyslexia susceptibility 1 candidate 1) (protein, UniProt Q8WXU2 1-420)
chain: MPLQVSDYSWQQTKTAVFLSLPLKGVCVRDTDVFCTENYLKVNFPPFLFEAFLYAPIDDESSKAKIGNDTIVFTLYKKEAAMWETLSVTGVDKEMMQRIREKSILQAQERAKEATEAKAAAKREDQKYALSVMMKIEEEERKKIEDMKENERIKATKALEAWKEYQRKAEEQKKIQREEKLCQKEKQIKEERKKIKYKSLTRNLASRNLAPKGRNSENIFTEKLKEDSIPAPRSVGSIKINFTPRVFPTALRESQVAEEEEWLHKQAEARRAMNTDIAELCDLKEEEKNPEWLKDKGNKLFATENYLAAINAYNLAIRLNNKMPLLYLNRAACHLKLKNLHKAIEDSSKALELLMPPVTDNANARMKAHVRRGTAFCQLELYVEGLQDYEAALKIDPSNKIVQIDAEKIRNVIQGTELKS
For the molecule B6, in test [2], the binding entry was “binds”.

B7: Myc-tagged IQUB (IQ motif and ubiquitin domain-containing protein) (protein, UniProt Q8NA54 1-791)
chain: MSNQQEKYEAQNIVNSTEESDDAFDTVTIPVPSEEPQESDQTEEHESGIEQFSESHAIHVEEQSDQSFSSLEPDNEQLMEEVISPRQVSYTPQHHEKQYAMQRPNDDSLAFLDKIKSVKESLQESVEDSLATVKVVLIPVGQEIVIPFKVDTILKYLKDHFSHLLGIPHSVLQIRYSGKILKNNETLVQHGVKPQEIVQVEIFSTNPDLYPVRRIDGLTDVSQIITVTVQTGLDQYQQVPVEIVKSDFHKPFLGGFRHKVTGVEYHNAGTQTVPKRIPERLSIFCRDTQTVFQKKNLQQTTNTTSTQMTNIGVYVSNMTDKLVTPGKYFSAAEYHAQRLKAVIVIQTYYRQWHAKIFVENLRRQKSLRLEWETQQELRKIREKEEWIKLDYHRRHNPKTNEDFEFLYNALEFWRQEELTRINQSFTGAERKAALCELLEKETQIIASIGRHRYIAYMANQEAAIQAFLDKCSAPKIWRTPNGKTIEMDTQFTIRARELQNIYKCIMLKNISQDERLDVLLTLKHTVKEHECKLTQEILELIDREVDLMMRGVKHHNLEGLRKRIATLFFHYIKTPLFNPEVAKYLKVPQDPLKFYKKIYFCHSCQLYLPSTEFSVSSTSRRIYRCRNCINLQNEAQKRESFLKYKCLLQQLYYTEADYEDDSKIAFLMQLQDIQYLTENIWASQSVLSACDNLSDLVMVRWNKSLEWSPWNCILLTKDEAAAHLKLTSIEEGYERSFIHKIKHKHILAKNYFSQVPVLASFILDDGEIDEIRWKYHSDTTPKIIESQRPPH
As for B7, the binding entry in test [2] is “binds”.

B8: Myc-C21ORF59 (chromosome 21 open reading frame 59) (protein, UniProt P57076 1-290)
chain: MVLLHVKRGDESQFLLQAPGSTELEELTVQVARVYNGRLKVQRLCSEMEELAEHGIFLPPNMQGLTDDQIEELKLKDEWGEKCVPSGGAVFKKDDIGRRNGQAPNEKMKQVLKKTIEEAKAIISKKQVEAGVCVTMEMVKDALDQLRGAVMIVYPMGLPPYDPIRMEFENKEDLSGTQAGLNVIKEAEAQLWWAAKELRRTKKLSDYVGKNEKTKIIAKIQQRGQGAPAREPIISSEEQKQLMLYYHRRQEELKRLEENDDDAYLNSPWADNTALKRHFHGVKDIKWRPR
Turning to B8, the binding result in test [2] is reported as “binds”.

B9: Myc-DNAI1 (dynein axonemal intermediate chain 1), Q9UI46 1-699 (protein)
chain: MIPASAKAPHKQPHKQSISIGRGTRKRDEDSGTEVGEGTDEWAQSKATVRPPDQLELTDAELKEEFTRILTANNPHAPQNIVRYSFKEGTYKPIGFVNQLAVHYTQVGNLIPKDSDEGRRQHYRDELVAGSQESVKVISETGNLEEDEEPKELETEPGSQTDVPAAGAAEKVTEEELMTPKQPKERKLTNQFNFSERASQTYNNPVRDRECQTEPPPRTNFSATANQWEIYDAYVEELEKQEKTKEKEKAKTPVAKKSGKMAMRKLTSMESQTDDLIKLSQAAKIMERMVNQNTYDDIAQDFKYYDDAADEYRDQVGTLLPLWKFQNDKAKRLSVTALCWNPKYRDLFAVGYGSYDFMKQSRGMLLLYSLKNPSFPEYMFSSNSGVMCLDIHVDHPYLVAVGHYDGNVAIYNLKKPHSQPSFCSSAKSGKHSDPVWQVKWQKDDMDQNLNFFSVSSDGRIVSWTLVKRKLVHIDVIKLKVEGSTTEVPEGLQLHPVGCGTAFDFHKEIDYMFLVGTEEGKIYKCSKSYSSQFLDTYDAHNMSVDTVSWNPYHTKVFMSCSSDWTVKIWDHTIKTPMFIYDLNSAVGDVAWAPYSSTVFAAVTTDGKAHIFDLAINKYEAICNQPVAAKKNRLTHVQFNLIHPIIIVGDDRGHIISLKLSPNLRKMPKEKKGQEVQKGPAVEIAKLDKLLNLVREVKIKT
On to B9, for which the binding entry in test [3] is given as “binds”.

B10: Myc-DNAI1 (dynein axonemal intermediate chain 1) (protein, UniProt Q9UI46 1-699)
chain: B9 chain
For the molecule B10, in test [4], the binding entry is given as “no binding”.
